Over roughly 13,000 compounds, “IFI” has its median near 4; the highest 2% begin near 17. The list shows a part of the results.
Experiment: GSK_TCMDC: Inhibition Frequency Index (IFI). The number of non-kinase HTS assays where a compound showed > 50 % inhibition, expressed as a percentage of the number of such assays in which the compound was tested (-0 is zero)
Assay type: functional

| Compound | IFI [%] |
| --- | --- |
| Cc1ccc2[nH]c(/C=C/c3cccc4cc[nH]c34)nc2c1 | 2.78 |
| COc1ccc2nccc([C@H](O)CN3CCC(NCc4cc(C)c5c(c4)OCCO5)CC3)c2n1 | 0.96 |
| N#Cc1ccc2[nH]cc(CN3CCC4(CC3)CN(CCNCc3ccccc3)C(=O)O4)c2c1 | 0.85 |
| CCCCSc1c(CNCCCCCCNCc2ccc3ccccc3c2SCCCC)ccc2ccccc12 | 15.8 |
| COc1ccc(CNC2CCN(C)CC2)cc1-c1ccc(S(=O)(=O)NC2CCC2)s1 | 8.33 |
| CCOC(=O)c1ccc(NC(=O)Nc2cccc(-c3cccc(-c4nc5cccc(C)c5[nH]4)c3)c2)cc1 | 10.8 |
| CCCSc1nc2c(c(=O)n1Cc1ccco1)C1(CCCCC1)Cc1ccccc1-2 | 2.9 |
| COc1cc2c(cc1O)[C@@H]1[C@H](O)[C@@H](O)C=C3CCN(C2)[C@H]31 | 4.14 |
| CCOC(=O)c1ccc(OCCCCCCOc2ccc(Br)cc2)cc1 | 0.7 |
| COc1ccc2nccc(N3CCC(CCNCc4ccc5c(n4)NC(=O)CS5)CC3)c2n1 | 4.35 |
| CC(=O)Nc1ccc(CN(Cc2ccc(F)cc2)Cc2cccc(Oc3ccccc3)c2)cc1 | 0.72 |
| Cc1c(Cl)cccc1S(=O)(=O)Nc1cccc(CCN2CCC(N3CCCCC3)CC2)c1 | 14.3 |
| COc1ccc(CNCc2cccc(-c3ccc(-c4nc5ccccc5[nH]4)cc3)c2)cc1 | 10.1 |
| CC(C)CC(C)NC(=O)C1Cc2c([nH]c3cc(Cl)ccc23)C2(CCN(CCc3ccccc3)CC2)N1 (stereo not given) | 5.67 |
| Cc1ccc(NC(=S)N2CCCN(CCCCCNC(=O)/C=C/c3ccc(Cl)c(Cl)c3)CC2)cc1Cl | 6.4 |
| CCCN(Cc1nnc(-c2cccs2)o1)C(=O)CSc1nnnn1-c1ccc(C)c(C)c1 | 2.78 |
| N#Cc1ccc(-c2ccc(C(=O)NCCCCN3CCC(c4cc(Br)c5c(c4OCC(N)=O)CCCC5)CC3)cc2)cc1 | 8.66 |
| Cc1cccc(Nc2nccc(NCC(O)c3cccc(C(F)(F)F)c3)n2)c1 (stereo not given) | 14.3 |
| C(=Cc1nc2ccccc2s1)c1ccc2c(c1)OCCO2 | 4.84 |
| CNC(=O)C1Cc2c([nH]c3cc(Cl)ccc23)C2(CCN(CCc3ccccc3)CC2)N1 (stereo not given) | 5 |
| CC(C)c1cccc(OCC2CCN(c3ncc(C(=O)Nc4ccccc4)cc3Cl)CC2)c1 | 0 |
| O=C(Nc1ccc(CN2CCOCC2)cc1)c1ccc(-c2cc(Cl)ccc2Cl)o1 | 3.53 |
| Cc1ccc(Nc2nc(C)cc(N3CCN(c4ccccc4)CC3)n2)cc1 | 14.8 |
| C=CCc1cc(Cc2cnc(N)nc2N)cc(CCC)c1OC | 1.42 |
| O=C(c1ccc(-c2cccc(-c3nc4cc(F)ccc4[nH]3)c2)cc1)N1CCCCC1CN1CCC(O)C1 (stereo not given) | 2.61 |

Source: ChEMBL document CHEMBL1157539, “Thousands of chemical starting points for antimalarial lead identification” (Nature, 2010)
